Data from US11618753B2 (priority 2018, dated 2023).

System: MLKL phosphorylation, HT29-L23 human colorectal adenocarcinoma cells
Experiment: cells
Settings: read-out: pMLKL HCS Cell Assay (IC50, uM)

**Q.** With COc1ncc(-c2cc(C(F)(F)F)c3c(N)ncnn23)cc1C(=O)N[C@@H]1CN(C(=O)C2(N)CCCC2)C[C@@H]1F [Example 1675, 5-(4-amino-5-(trifluoromethyl)pyrrolo[2,1-f][1,2,4]triazin-7-yl)-N-((3R,4S)-1-(1-aminocyclopentane-1-carbonyl)-4-fluoropyrrolidin-3-yl)-2-methoxynicotinamide] as the compound, how does the IC50 read?
**A.** 0.134 µM

**Q.** With CCOc1ccc(-c2cc(C(F)(F)F)c3c(N)ncnn23)cc1C(=O)N[C@@H]1CN(C(=O)C(C)(C)O)C[C@@H]1F [Example 1100, 5-[4-amino-5-(trifluoromethyl)pyrrolo[2,1-f][1,2,4]triazin-7-yl]-2-ethoxy-N-[(3R,4S)-4-fluoro-1-(2-hydroxy-2-methylpropanoyl)pyrrolidin-3-yl]benzamide] as the compound, how does the IC50 read?
**A.** 0.247 µM

**Q.** How did the IC50 turn out when COc1ncc(-c2cc(CN3CCC(F)(F)CC3)c3c(N)ncnn23)cc1C(=O)N[C@@H]1CN(C(=O)OC2(C3CC3)CC2)C[C@@H]1F [Example 1521, [1,1′-bi(cyclopropane)]-1-yl (3R,4S)-3-(5-{4-amino-5-[(4,4-difluoropiperidin-1-yl)methyl]pyrrolo[2,1-f][1,2,4]triazin-7-yl}-2-methoxypyridine-3-amido)-4-fluoropyrrolidine-1-carboxylate] was run?
**A.** 0.0032 µM

**Q.** For Nc1ncnn2c(-c3cc(F)c(Cl)c(C(=O)N[C@@H]4CN(C(=O)CC(O)(C(F)(F)F)C(F)(F)F)C[C@@H]4F)c3)cc(C(F)(F)F)c12 [Example 637, 5-[4-amino-5-(trifluoromethyl)pyrrolo[2,1-f][1,2,4]triazin-7-yl]-2-chloro-3-fluoro-N-[(3R,4S)-4-fluoro-1-[4,4,4-trifluoro-3-hydroxy-3-(trifluoromethyl)butanoyl]pyrrolidin-3-yl]benzamide], which IC50 is on record?
**A.** 0.0026 µM

**Q.** How did the IC50 turn out when CCC(O)(C(=O)N1C[C@H](F)[C@H](NC(=O)c2cc(-c3cc(CN4CCC(F)(F)CC4)c4c(N)ncnn34)cnc2OC)C1)C(F)(F)F (stereo partly drawn) [Example 1625, 5-{4-amino-5-[(4,4-difluoropiperidin-1-yl)methyl]pyrrolo[2,1-f][1,2,4]triazin-7-yl}-N-[(3R,4S)-4-fluoro-1-[2-hydroxy-2-(trifluoromethyl)butanoyl]pyrrolidin-3-yl]-2-methoxypyridine-3-carboxamide] was run?
**A.** 0.0011 µM

**Q.** Cc1cc(F)c(-c2cc(C(F)(F)F)c3c(N)ncnn23)cc1C(=O)N[C@@H]1CN(C(=O)C(C)(C)C)C[C@@H]1F [Example 795, 5-[4-amino-5-(trifluoromethyl)pyrrolo[2,1-f][1,2,4]triazin-7-yl]-N-[(3R,4S)-1-(2,2-dimethylpropanoyl)-4-fluoropyrrolidin-3-yl]-4-fluoro-2-methylbenzamide] was tested. Which IC50 did it give?
**A.** 0.0037 µM

**Q.** COc1ncc(-c2cc(C(=O)NCCO)c3c(N)ncnn23)cc1C(=O)N1CCC[C@@H](Cc2ccc(F)cc2)C1 [Example 469, 4-amino-7-{5-[(3S)-3-[(4-fluorophenyl)methyl]piperidine-1-carbonyl]-6-methoxypyridin-3-yl}-N-(2-hydroxyethyl)pyrrolo[2,1-f][1,2,4]triazine-5-carboxamide] was tested. Which IC50 did it give?
**A.** 0.079 µM

**Q.** With Cc1cc(F)c(-c2cc(C(F)(F)F)c3c(N)ncnn23)cc1C(=O)N[C@@H]1CN(C(=O)c2ccc(OC(F)(F)F)cn2)C[C@@H]1F [Example 843, 5-[4-amino-5-(trifluoromethyl)pyrrolo[2,1-f][1,2,4]triazin-7-yl]-4-fluoro-N-[(3R,4S)-4-fluoro-1-[5-(trifluoromethoxy)pyridine-2-carbonyl]pyrrolidin-3-yl]-2-methylbenzamide] as the compound, how does the IC50 read?
**A.** 0.357 µM

**Q.** Which IC50 does the source give for COc1ncc(-c2cc(C(F)(F)F)c3c(N)ncnn23)cc1C(=O)N[C@@H]1CN(S(=O)(=O)c2cccc3ccccc23)C[C@@H]1F [Example 1471, 5-[4-amino-5-(trifluoromethyl)pyrrolo[2,1-f][1,2,4]triazin-7-yl]-N-[(3R,4S)-4-fluoro-1-(naphthalene-1-sulfonyl)pyrrolidin-3-yl]-2-methoxypyridine-3-carboxamide] here?
**A.** 0.094 µM

**Q.** For COc1ncc(-c2cc(C(F)(F)F)c3c(N)ncnn23)cc1C(=O)N[C@@H]1CN(C(=O)CC2CCCCC2)C[C@@H]1F [Example 1216, 5-[4-amino-5-(trifluoromethyl)pyrrolo[2,1-f][1,2,4]triazin-7-yl]-N-[(3R,4S)-1-(2-cyclohexylacetyl)-4-fluoropyrrolidin-3-yl]-2-methoxypyridine-3-carboxamide], which IC50 is on record?
**A.** 0.048 µM

**Q.** With COc1ncc(-c2cc(C(F)(F)F)c3c(N)ncnn23)cc1C(=O)NC1CN(CC(O)(C2CC2)C(F)(F)F)C[C@@H]1F (stereo partly drawn) [Example 1826, 5-(4-amino-5-(trifluoromethyl)pyrrolo[2,1-f][1,2,4]triazin-7-yl)-N-((3R,4S)-1-(2-cyclopropyl-3,3,3-trifluoro-2-hydroxypropyl)-4-fluoropyrrolidin-3-yl)-2-methoxynicotinamide] as the compound, how does the IC50 read?
**A.** 0.0077 µM

**Q.** Which IC50 does the source give for Nc1ncnn2c(-c3cccc(C(=O)N[C@@H]4CN(C(=O)C5CCC5)C[C@@H]4F)c3F)cc(C(F)(F)F)c12 [Example 763, 3-[4-amino-5-(trifluoromethyl)pyrrolo[2,1-f][1,2,4]triazin-7-yl]-N-[(3R,4S)-1-cyclobutanecarbonyl-4-fluoropyrrolidin-3-yl]-2-fluorobenzamide] here?
**A.** 0.043 µM

**Q.** How did the IC50 turn out when Nc1ncnn2c(-c3ccc(Cl)c(C(=O)N[C@@H]4CN(C(=O)C5CC(F)C5)C[C@@H]4F)c3)cc(CN3CCC(F)(F)CC3)c12 (stereo partly drawn) [Example 1142, 5-{4-amino-5-[(4,4-difluoropiperidin-1-yl)methyl]pyrrolo[2,1-f][1,2,4]triazin-7-yl}-2-chloro-N-[(3R,4S)-4-fluoro-1-(3-fluorocyclobutanecarbonyl)pyrrolidin-3-yl]benzamide] was run?
**A.** 0.00058 µM

**Q.** Which IC50 does the source give for COc1ncc(-c2cc(Cn3cnc(Cl)c3)c3c(N)ncnn23)cc1C(=O)N[C@@H]1CN(C(=O)C2CC(F)(F)C2)C[C@@H]1F [Example 1706, 5-(4-amino-5-((4-chloro-1H-imidazol-1-yl)methyl)pyrrolo[2,1-f][1,2,4]triazin-7-yl)-N-((3R,4S)-1-(3,3-difluorocyclobutane-1-carbonyl)-4-fluoropyrrolidin-3-yl)-2-methoxynicotinamide] here?
**A.** 0.0075 µM

**Q.** With COc1cc(F)c(-c2cc(C(F)(F)F)c3c(N)ncnn23)cc1C(=O)N[C@@H]1CN(C(=O)C2CC2(F)F)C[C@@H]1F (stereo partly drawn) [Example 869, 5-[4-amino-5-(trifluoromethyl)pyrrolo[2,1-f][1,2,4]triazin-7-yl]-N-[(3R,4S)-1-(2,2-difluorocyclopropanecarbonyl)-4-fluoropyrrolidin-3-yl]-4-fluoro-2-methoxybenzamide] as the compound, how does the IC50 read?
**A.** 0.0056 µM

**Q.** How did the IC50 turn out when COc1ncc(-c2cc(C(F)(F)F)c3c(N)ncnn23)cc1C(=O)N[C@@H]1CN(S(=O)(=O)c2cccc(C)c2)C[C@@H]1F [Example 1477, 5-[4-amino-5-(trifluoromethyl)pyrrolo[2,1-f][1,2,4]triazin-7-yl]-N-[(3R,4S)-4-fluoro-1-(3-methylbenzenesulfonyl)pyrrolidin-3-yl]-2-methoxypyridine-3-carboxamide] was run?
**A.** 0.022 µM

**Q.** With CCC(O)(C(=O)N1C[C@H](F)[C@H](NC(=O)c2cc(-c3cc(C(F)(F)F)c4c(N)ncnn34)c(C)nc2C)C1)C(F)(F)F (stereo partly drawn) [Example 1199, 5-[4-amino-5-(trifluoromethyl)pyrrolo[2,1-f][1,2,4]triazin-7-yl]-N-[(3R,4S)-4-fluoro-1-[2-hydroxy-2-(trifluoromethyl)butanoyl]pyrrolidin-3-yl]-2,6-dimethylpyridine-3-carboxamide] as the compound, how does the IC50 read?
**A.** 0.164 µM
